The full ranking holds about 33,000 sequences; the median of “E-score (-0.5 to 0.5)” is about -0.021, and the highest 2% start at about 0.32. The list shows a part of the results.

In the experiment the target is T1, Zap1 (UniProt P47043).
T1 sequence: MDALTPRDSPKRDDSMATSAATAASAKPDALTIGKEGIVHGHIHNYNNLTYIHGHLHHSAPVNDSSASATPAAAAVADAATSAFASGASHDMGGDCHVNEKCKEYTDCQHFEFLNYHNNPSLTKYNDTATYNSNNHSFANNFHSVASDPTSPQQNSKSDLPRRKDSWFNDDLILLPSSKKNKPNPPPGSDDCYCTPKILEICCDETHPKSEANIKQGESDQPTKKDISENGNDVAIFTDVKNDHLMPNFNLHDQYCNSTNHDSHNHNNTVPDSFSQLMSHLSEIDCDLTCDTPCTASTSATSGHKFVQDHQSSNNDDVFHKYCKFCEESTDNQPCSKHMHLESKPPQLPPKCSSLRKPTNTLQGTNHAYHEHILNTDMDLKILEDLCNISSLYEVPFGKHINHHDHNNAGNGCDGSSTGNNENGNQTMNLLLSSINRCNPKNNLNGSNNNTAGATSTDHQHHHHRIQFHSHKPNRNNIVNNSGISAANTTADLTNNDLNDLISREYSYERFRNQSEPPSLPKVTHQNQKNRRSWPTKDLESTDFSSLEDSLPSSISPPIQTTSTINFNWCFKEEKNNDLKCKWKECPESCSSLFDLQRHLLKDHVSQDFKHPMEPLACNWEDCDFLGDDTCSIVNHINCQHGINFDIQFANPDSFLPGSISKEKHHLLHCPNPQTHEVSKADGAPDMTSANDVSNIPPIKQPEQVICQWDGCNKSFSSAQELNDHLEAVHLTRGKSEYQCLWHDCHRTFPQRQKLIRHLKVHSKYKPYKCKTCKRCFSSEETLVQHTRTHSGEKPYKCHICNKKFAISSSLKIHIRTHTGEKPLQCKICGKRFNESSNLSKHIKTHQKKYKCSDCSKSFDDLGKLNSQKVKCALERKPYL
The experiment is described as follows: PBM E-score (8-mer binding enrichment) (E-score (-0.5 to 0.5)); higher = stronger / more preferred TF binding; most listed sequences are background and not binding sites. The settings on record: protein concentration: 200 nM; construct: GST-full length. A digest of the protocol: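 GST-tagged yeast TFs (full-length or DNA-binding domain) were made by PURExpress in vitro transcription/translation and applied at about 100-200 nM to universal all-10-mer Agilent arrays. The arrays were made double-stranded by primer extension, on fresh or once-stripped slides. Bound protein was detected with fluorescent anti-GST, and scans were normalised with masliner. Each ungapped eight-base word, pooled with its reverse complement, received an E-score (modified Wilcoxon-Mann-Whitney statistic) from the Universal PBM Analysis Suite.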
As to CTCAGCTA, the “PBM E-score” value is -0.00828.

AGAAACTA: the “PBM E-score” value was -0.0549.

For the sequence GATCAATA, the “PBM E-score” value was 0.0255.

For CGTCCACG, the “PBM E-score” value was -0.181.

Turning to ATAATTCG, the “PBM E-score” value came out at 0.0985.

Take CAAGTAGC: the “PBM E-score” value is -0.129.

In the case of CGGGCTAC, the “PBM E-score” value is -0.076.

In the case of AGCTTTTA, the “PBM E-score” value is -0.171.

With CTAACTGA, the “PBM E-score” value was determined as 0.036.

With GCGTGGAC, the “PBM E-score” value was -0.142.

Consider CGTGTCTA, for which the “PBM E-score” value was -0.167.

Consider ACCATGGA, for which the “PBM E-score” value was -0.0928.

TGTACTAA: the “PBM E-score” value is 0.0782.

GCGACGCA: the “PBM E-score” value was -0.0439.

For the sequence ACGCGAAC, the “PBM E-score” value was 0.0863.

Regarding CGAGATAC, the “PBM E-score” value is 0.112.

Consider GAAATACA, for which the “PBM E-score” value is 0.116.

Consider GTGGTCAA, for which the “PBM E-score” value came out at 0.201.

For AAGAAGAG, the “PBM E-score” value is -0.0898.

On to AGTCCACC, for which the “PBM E-score” value was -0.0123.

As for AGTGGGCA, the “PBM E-score” value is -0.0621.

Take CTCTGGGA: the “PBM E-score” value was -0.169.

On to AGGGCCGC, for which the “PBM E-score” value was -0.171.

As to ACTTTCGC, the “PBM E-score” value was -0.127.

Regarding AACCAGGT, the “PBM E-score” value is 0.201.

As for GAAGTTCA, the “PBM E-score” value was -0.105.

Consider AACCGCGC, for which the “PBM E-score” value was determined as 0.24.

On to CGATGCGA, for which the “PBM E-score” value is -0.0439.

In the case of CTAGCTAG, the “PBM E-score” value was determined as 0.0873.

Turning to GAAACAAA, the “PBM E-score” value was determined as 0.13.

AGGTGGAG: the “PBM E-score” value was -0.216.

As for AGACGACC, the “PBM E-score” value was found to be 0.124.

In the case of AAAGAAAG, the “PBM E-score” value stood at 0.0165.

Turning to AATTCTCA, the “PBM E-score” value is -0.0866.

Turning to GCTAGTCC, the “PBM E-score” value is -0.307.

With AGCGACCT, the “PBM E-score” value is -0.0823.

AATAGCAT: the “PBM E-score” value is -0.0685.

Consider AGCTCTGA, for which the “PBM E-score” value is -0.211.

Take ATTTCTCG: the “PBM E-score” value was 0.176.

Take ATCGTGGC: the “PBM E-score” value is -0.145.

Turning to GGGGATTA, the “PBM E-score” value is -0.017.

For TGCAAAAA, the “PBM E-score” value was 0.0645.

For the sequence CCGGTTGA, the “PBM E-score” value is -0.0219.

GGCTGATA: the “PBM E-score” value was -0.158.

AGGAGCGC: the “PBM E-score” value is -0.151.

Regarding ACGAGCGG, the “PBM E-score” value was -0.152.

On to GTACGGAC, for which the “PBM E-score” value was 0.0497.

GGCTGCCC: the “PBM E-score” value is -0.0432.

Turning to GAATTACC, the “PBM E-score” value came out at 0.167.

Regarding GCGCCAGC, the “PBM E-score” value was -0.267.

Take AAATGGAT: the “PBM E-score” value was -0.134.

Turning to ACAGGGGG, the “PBM E-score” value was -0.225.

As to CAACCAGC, the “PBM E-score” value is -0.0722.

Take ATCCCGGA: the “PBM E-score” value turned out to be 0.0882.

Consider CGAGTATC, for which the “PBM E-score” value was -0.115.

For CGTTTCAG, the “PBM E-score” value was 0.0527.

Take AGCATGAG: the “PBM E-score” value was found to be 0.00126.

As to CATTTACC, the “PBM E-score” value was found to be 0.0957.

Consider ACGTACCC, for which the “PBM E-score” value worked out at 0.0365.

For the sequence CACAGTCA, the “PBM E-score” value is -0.14.

With AATATGTG, the “PBM E-score” value turned out to be 0.0468.

With CCTTATAA, the “PBM E-score” value amounted to 0.194.

As to CGTCAAAG, the “PBM E-score” value was -0.0547.

As to TCAGCGGA, the “PBM E-score” value was -0.0896.

On to CATTCATC, for which the “PBM E-score” value was -0.0992.

For the sequence CGAAAACG, the “PBM E-score” value amounted to 0.0386.

In the case of GTGTGGGA, the “PBM E-score” value was -0.218.

For the sequence CGGATGGA, the “PBM E-score” value was -0.0655.

On to GCCTTATA, for which the “PBM E-score” value is -0.00564.

With AATGATCT, the “PBM E-score” value is -0.0272.

On to CAGGCATC, for which the “PBM E-score” value was -0.239.

On to CCAAAAGC, for which the “PBM E-score” value was -0.0282.

As to AGCATACC, the “PBM E-score” value was 0.0696.

In the case of AGGATTAT, the “PBM E-score” value is 0.0182.

Turning to ACAACTCG, the “PBM E-score” value was 0.0898.

With ATCGAACC, the “PBM E-score” value is -0.0318.

On to ACAGTACC, for which the “PBM E-score” value was determined as 0.219.

For the sequence GTCTGACA, the “PBM E-score” value was -0.172.

Turning to ACGCGTCA, the “PBM E-score” value worked out at 0.0028.

For ACCCAGGG, the “PBM E-score” value amounted to 0.0854.

Regarding TAACATCA, the “PBM E-score” value came out at 0.0842.

GAATCCGC: the “PBM E-score” value is -0.227.

For TAGGACGA, the “PBM E-score” value was -0.113.

Turning to CCGACCGC, the “PBM E-score” value was -0.147.

For the sequence AGACCGTG, the “PBM E-score” value came out at 0.149.

On to ACGTGAGC, for which the “PBM E-score” value is -0.116.
